Measured values as given in the supplement of paper PMC10126150.
Values marked as one replicate rest on one cluster of the flow cell; about a third of the high ones do not repeat.

system: ATP; assay: switch fluorescence ratio, 500 uM ATP over buffer (Cy3 cluster intensity, sum of 5 cycles each) (fold (ratio)); higher = stronger signal-on switching upon ATP binding; sequences stand for … in TCGTCGGCAGCGTCAGATGTGTATAAGAGACAGTTTTTTTTTTTTTTTTTTTTTTTTT…TC; details: aptamer strand: ATP DNA aptamer (quencher-CACCTGGGGGAGTATTGCGGAGGAAGG + anchor), 100 nM annealed; ATP concentration: 500 uM; one replicate
In short: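 Five buffer/ATP imaging cycles were run on Cy3-labelled switching-strand clusters on a modified Illumina MiSeq flow-cell, with NaOH stripping and re-annealing between cycles. In each cycle, clusters annealed to 100 nM quencher-labelled ATP aptamer were imaged in selection buffer, then after 15 min with 500 uM ATP at 22 °C. Per cluster, the fluorescence ratio is summed target-cycle over summed buffer-cycle Cy3 intensity, averaged per switch-domain sequence. Only clusters within 100-1000 RFU were kept.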
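Note: ATP exposure 15 min at 22 °C before imaging.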

Sequence | switch fluorescence ratio
TCGTGGTTGT | 0.989
TCGTGTGCGC | 1.01
TCGTGTTGCT | 1.05
TCGTTAAGTT | 1
TCGTTCATCG | 0.932
TCGTTCTGCA | 1.12
TCGTTGAAAT | 1.03
TCGTTGTATA | 0.951
TCGTTTATTG | 1.01
TCGTTTTAC | 1.22
TCTAACAGGT | 1.03
TCTAACGCGA | 1.82
TCTAAGCCCC | 1.01
TCTAAGTTCT | 0.979
TCTAATCTTC | 0.981
TCTAATGAAA | 1.02
TCTACAAGCT | 1.02
TCTACAAGGC | 1.07
TCTACATAT | 1.01
TCTACATTAG | 1.09
TCTACCGAAA | 1.12
TCTACCGTGA | 1.31
TCTACGAGGG | 1.03
TCTACGGCTT | 1.08
TCTACGTACT | 1.67
TCTACTAAAC | 1.03

Sequence | switch fluorescence ratio
TCTACTACAA | 1.11
TCTACTGCTC | 1.09
TCTAGATAAC | 1
TCTAGCTGG | 1.01
TCTAGGAATC | 1.08
TCTAGGGTTA | 0.943
TCTAGGTAGG | 0.988
TCTAGTAAGG | 1.01
TCTATAAGCG | 1.01
TCTATACATA | 1.07
TCTATACCGG | 1
TCTATCCATT | 1.03
TCTATGTAAA | 1.01
TCTATGTCTC | 0.875
TCTATGTGAA | 1
TCTATT | 0.984
TCTATTACGG | 0.973
TCTATTAGTC | 1.02
TCTATTCCGC | 1.68
TCTCAATACC | 1.8
TCTCACCGCA | 3.73
TCTCAGGTAT | 0.976
TCTCATAACG | 1.01
TCTCCAAGG | 1.2
TCTCCACGTT | 1.06
TCTCCATCTC | 1.12

Sequence | switch fluorescence ratio
TCTCCATGGA | 1.01
TCTCCTCATC | 2.29
TCTCCTTGGG | 0.993
TCTCGAAGAT | 1
TCTCGCAAAG | 1.04
TCTCGGACGC | 1.25
TCTCGGCCTT | 1.08
TCTCGGCTAC | 2.7
TCTCGGTTA | 1
TCTCGTTCTG | 0.969
TCTCTACAAC | 1.14
TCTCTATGGT | 0.959
TCTCTCGAGA | 0.992
TCTCTGGGGG | 1.03
TCTCTTTCCT | 1.06
TCTGACAACG | 1
TCTGACGATC | 1.66
TCTGAGGACG | 1.01
TCTGAGTTGT | 0.969
TCTGCACTGG | 1.13
TCTGCCGACA | 1.03
TCTGCCGATT | 0.992
TCTGCCTCAG | 1.07
TCTGCCTTAA | 0.968
TCTGCGATTC | 1.85
